Measurements taken from US7166622B2, “Substituted phenylsulfonamide inhibitors of beta amyloid production” (Wyeth, priority 2002, dated 2007).
Several values for one entry are separate records, joined by “and”; a condition that tells them apart may be missing. Identical values can stand only once. The name of at least one read-out is uncertain.

Tested on: beta amyloid production
Assay: Repressor Release Assay (RRA)
Type: cell-based
Details: for APPI % of Example #98: relative to Example 98; for APPI Fold Increase: luciferase activity over diluent control
Procedure, shortened: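 CHO-K1 cells transiently co-transfected with pRSVO-luc and an APP-lacI construct, replated, then treated in duplicate for 36-48 h at 37 °C, 5% CO2. Compounds diluted in 25 mM Hepes, with Hepes/1% DMSO as diluent control. Luciferase read-out in relative light units; toxicity scored 1 non-toxic, 0 toxic.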

Compound	APPI % of Example #98 (Conc 10 μg/ml)	APPI Fold Increase (Conc 10 μg/ml) [fold]	APPI % of Example #98 (Conc 3 μg/ml) [%]
CC[C@H](C)[C@H](NS(=O)(=O)c1ccc(F)cc1)C(O)c1cccc2ccccc12 (stereo partly drawn) [Example 144, 4-fluoro-N-{(1S,2S)-1-[hydroxy(1-naphthyl)methyl]-2-methylbutyl}benzenesulfonamide]	71.37%	–	–
CC[C@H](C)[C@H](NS(=O)(=O)c1ccc(Br)cc1)C(C)O (stereo partly drawn) [Example 145, 4-bromo-N-[(1S,2S)-1-(1-hydroxyethyl)-2-methylbutyl]benzenesulfonamide]	152.49% and 102.15%	2.57	–
CCCCCC(O)[C@@H](NS(=O)(=O)c1ccc(Br)cc1)[C@@H](C)CC (stereo partly drawn) [Example 147, 4-bromo-N-{(1S)-2-hydroxy-1-[(1S)-1-methylpropyl]heptyl}benzenesulfonamide]	75.86%	–	–
CCCCC(O)[C@@H](NS(=O)(=O)c1ccc(Br)cc1)[C@@H](C)CC (stereo partly drawn) [Example 148, 4-bromo-N-{(1S)-2-hydroxy-1-[(1S)-1-methylpropyl]hexyl}benzenesulfonamide]	73.4%	–	–
C=CC(O)[C@@H](NS(=O)(=O)c1ccc(Br)cc1)[C@@H](C)CC (stereo partly drawn) [Example 151, 4-bromo-N-{(1S)-2-hydroxy-1-[(1S)-1-methylpropyl]-3-butenyl}benzenesulfonamide]	129.13%	–	–
C=CCC(O)[C@@H](NS(=O)(=O)c1ccc(Br)cc1)[C@@H](C)CC (stereo partly drawn) [Example 152, 4-bromo-N-{(1S)-2-hydroxy-1-[(1S)-1-methylpropyl]-4-pentenyl}benzenesulfonamide]	–	3.7	29.7
CCC(O)[C@@H](NS(=O)(=O)c1ccc(Br)cc1)[C@@H](C)CC (stereo partly drawn) [Example 153, 4-bromo-N-{(1S)-2-hydroxy-1-[(1S)-1-methylpropyl]butyl}benzenesulfonamide]	–	2.9	36.2
CC[C@H](C)[C@H](NS(=O)(=O)c1ccc(Br)cc1)C(O)c1ccc(F)cc1 (stereo partly drawn) [Example 154, 4-bromo-N-{(1S,2S)-1-[(4-fluorophenyl) (hydroxy)methyl]-2-methylbutyl}benzenesulfonamide]	74.73%	–	–
CC[C@H](C)[C@H](NS(=O)(=O)c1ccc(Br)cc1)C(O)c1ccc(Cl)cc1 (stereo partly drawn) [Example 155, 4-bromo-N-{(1S,2S)-1-[(4-chlorophenyl)(hydroxy)methyl]-2-methylbutyl}benzenesulfonamide]	194.25%	–	–
CC[C@H](C)[C@H](NS(=O)(=O)c1ccc(Br)cc1)C(O)C=C(C)C (stereo partly drawn) [Example 156, 4-bromo-N-{(1S)-2-hydroxy-4-methyl-1-[(1S)-1-methylpropyl]-3-pentenyl}benzenesulfonamide]	89.37% and 106.77%	1.64	98.84
C=C(C)C(O)[C@@H](NS(=O)(=O)c1ccc(Br)cc1)[C@@H](C)CC (stereo partly drawn) [Example 157, 4-bromo-N-{(1S)-2-hydroxy-3-methyl-1-[(1S)-1-methylpropyl]-3-butenyl}benzenesulfonamide]	87.36%	–	–
C/C=C(\C)C(O)[C@@H](NS(=O)(=O)c1ccc(Br)cc1)[C@@H](C)CC (stereo partly drawn) [Example 159, 4-bromo-N-{(1S,3E)-2-hydroxy-3-methyl-1-[(1S)-1-methylpropyl]-3-pentenyl}benzenesulfonamide]	94.03%	–	–
C=CCCC(O)[C@@H](NS(=O)(=O)c1ccc(Br)cc1)[C@@H](C)CC (stereo partly drawn) [Example 161, 4-bromo-N-{(1S)-2-hydroxy-1-[(1S)-1-methylpropyl]-5-hexenyl}benzenesulfonamide]	71.57%	–	–
CC#CC(O)[C@@H](NS(=O)(=O)c1ccc(Br)cc1)[C@@H](C)CC (stereo partly drawn) [Example 162, 4-bromo-N-{(1S)-2-hydroxy-1-[(1S)-1-methylpropyl]-3-pentynyl}benzenesulfonamide]	68.85%	–	–
CC[C@H](C)[C@H](NS(=O)(=O)c1ccc(Cl)cc1)C(C)O (stereo partly drawn) [Example 165, 4-Chloro-N-[(1S,2S)-1-(hydroxyethyl)-2-methylbutyl]benzenesulfonamide]	70.81% and 63.92%	1.6	–
CCCCCCC(O)[C@@H](NS(=O)(=O)c1ccc(Cl)cc1)[C@@H](C)CC (stereo partly drawn) [Example 167, 4-chloro-N-{(1S)-2-hydroxy-1-[(1S)-1-methylpropyl]octyl}benzenesulfonamide]	332.83%	–	–
CCCCC(O)[C@@H](NS(=O)(=O)c1ccc(Cl)cc1)[C@@H](C)CC (stereo partly drawn) [Example 169, 4-chloro-N-{(1S)-2-hydroxy-1-[(1S)-1-methylpropyl]hexyl}benzenesulfonamide]	98.28% and 80.19%	2.01	–
CC[C@H](C)[C@H](NS(=O)(=O)c1ccc(Cl)cc1)C(O)C(C)C (stereo partly drawn) [Example 170, 4-chloro-N-{(1S)-2-hydroxy-3-methyl-1-[(1S)-1-methylpropyl]butyl}benzenesulfonamide]	66.13%	–	–
CC[C@H](C)[C@H](NS(=O)(=O)c1ccc(Cl)cc1)C(O)c1ccccc1C (stereo partly drawn) [Example 171, 4-chloro-N-{(1S,2S)-1-[hydroxy(2-methylphenyl)methyl]-2-methylbutyl}benzenesulfonamide]	53.17%	–	–

Compound	APPI % of Example #98 (Conc 10 μg/ml)	APPI Fold Increase (Conc 10 μg/ml) [fold]	APPI % of Example #98 (Conc 3 μg/ml) [%]
CC[C@H](C)[C@H](NS(=O)(=O)c1ccc(Cl)cc1)C(O)C(C)(C)C (stereo partly drawn) [Example 172, 4-chloro-N-{(1S)-2-hydroxy-3,3-dimethyl-1-[(1S)-1-methylpropyl]butyl}benzenesulfonamide]	86.45% and 63.78%	1.59	–
CC[C@H](C)[C@H](NS(=O)(=O)c1ccc(Cl)cc1)C(O)CC(C)C (stereo partly drawn) [Example 173, 4-chloro-N-{(1S)-2-hydroxy-4-methyl-1-[(1S)-1-methylpropyl]pentyl}benzenesulfonamide]	88.08%	–	–
C=CC(O)[C@@H](NS(=O)(=O)c1ccc(Cl)cc1)[C@@H](C)CC (stereo partly drawn) [Example 174, 4-chloro-N-{(1S)-2-hydroxy-1-[(1S)-1-methylpropyl]-3-butenyl}benzenesulfonamide]	102.08%	–	–
C=CCC(O)[C@@H](NS(=O)(=O)c1ccc(Cl)cc1)[C@@H](C)CC (stereo partly drawn) [Example 175, 4-chloro-N-{(1S)-2-hydroxy-1-[(1S)-1-methylpropyl]-4-pentenyl}benzenesulfonamide]	205.87% and 124.61%	–	–
CCC(O)[C@@H](NS(=O)(=O)c1ccc(Cl)cc1)[C@@H](C)CC (stereo partly drawn) [Example 176, 4-chloro-N-{(1S)-2-hydroxy-1-[(1S)-1-methylpropyl]butyl}benzenesulfonamide]	127.84% and 116.42%	1.87	–
CC[C@H](C)[C@H](NS(=O)(=O)c1ccc(Cl)cc1)C(O)c1ccc(Cl)cc1 (stereo partly drawn) [Example 177, 4-chloro-N-{(1S,2S)-1-[(4-chlorophenyl) (hydroxy)methyl]-2-methylbutyl}benzenesulfonamide]	94.93%	–	–
CC[C@H](C)[C@H](NS(=O)(=O)c1ccc(Cl)cc1)C(O)c1ccc(OC)cc1 (stereo partly drawn) [Example 178, 4-chloro-N-{(1S,2S)-1-[hydroxy(4-methoxyphenyl)methyl]-2-methylbutyl}benzenesulfonamide]	81.88%	–	–
C=CCCC(O)[C@@H](NS(=O)(=O)c1ccc(Cl)cc1)[C@@H](C)CC (stereo partly drawn) [Example 180, 4-chloro-N-{(1S)-2-hydroxy-1-[(1S)-1-methylpropyl]-5-hexenyl}benzenesulfonamide]	80.17%	–	–
CC#CC(O)[C@@H](NS(=O)(=O)c1ccc(Cl)cc1)[C@@H](C)CC (stereo partly drawn) [Example 181, 4-chloro-N-{(1S)-2-hydroxy-1-[(1S)-1-methylpropyl]-3-pentynyl}benzenesulfonamide]	83.43%	–	–
CC[C@H](C)[C@H](NS(=O)(=O)c1ccc(Cl)cc1)C(O)c1ccc(N(C)C)cc1 (stereo partly drawn) [Example 183, 4-chloro-N-{(1S,2S)-1-[[4-(dimethylamino)phenyl](hydroxy)methyl]-2-methylbutyl}benzenesulfonamide]	212.53%	–	–
CC[C@H](C)[C@H](NS(=O)(=O)c1ccc(Cl)cc1)C(O)c1cccc2ccccc12 (stereo partly drawn) [Example 184, 4-chloro-N-{(1S,2S)-1-[hydroxy(1-naphthyl)methyl]-2-methylbutyl}benzenesulfonamide]	80.39%	–	–
CC[C@H](C)[C@H](NS(=O)(=O)c1cccc(Cl)c1)C(C)O (stereo partly drawn) [Example 185, 3-chloro-N-[(1S,2S)-1-(1-hydroxyethyl)-2-methylbutyl]benzenesulfonamide]	51.91%	–	–
CC[C@H](C)[C@H](NS(=O)(=O)c1cccc(Cl)c1)C(O)C1CCCC1 (stereo partly drawn) [Example 186, 3-chloro-N-{(1S,2S)-1-[cyclopentyl(hydroxy)methyl]-2-methylbutyl}benzenesulfonamide]	133.06%	–	–
CCCCCCC(O)[C@@H](NS(=O)(=O)c1cccc(Cl)c1)[C@@H](C)CC (stereo partly drawn) [Example 187, 3-chloro-N-{(1S)-2-hydroxy-1-[(1S)-1-methylpropyl]octyl}benzenesulfonamide]	310.99%	–	–
CCCCCC(O)[C@@H](NS(=O)(=O)c1cccc(Cl)c1)[C@@H](C)CC (stereo partly drawn) [Example 188, 3-chloro-N-{(1S)-2-hydroxy-1-[(1S)-1-methylpropyl]heptyl}benzenesulfonamide]	122.17%	–	–
CCCCC(O)[C@@H](NS(=O)(=O)c1cccc(Cl)c1)[C@@H](C)CC (stereo partly drawn) [Example 189, 3-chloro-N-{(1S)-2-hydroxy-1-[(1S)-1-methylpropyl]hexyl}benzenesulfonamide]	52.11%	–	–
CC[C@H](C)[C@H](NS(=O)(=O)c1cccc(Cl)c1)C(O)C(C)C (stereo partly drawn) [Example 190, 3-chloro-N-{(1S)-2-hydroxy-3-methyl-1-[(1S)-1-methylpropyl]butyl}benzenesulfonamide]	60.57%	–	–
CC[C@H](C)[C@H](NS(=O)(=O)c1cccc(Cl)c1)C(O)C(C)(C)C (stereo partly drawn) [Example 191, 3-chloro-N-{(1S)-2-hydroxy-3,3-dimethyl-1-[(1S)-1-methylpropyl]butyl}benzenesulfonamide]	83.48%	–	–
